Out of some 48,000 compounds screened, about 550 (1.1%) were called active. Roughly 4% stayed inconclusive and do not appear here. Rule as the data show it: active = potency below about 15 µM; inconclusive = mostly about 16 µM to 33 µM; inactive = weaker than that. The list shows a part of the results.
Potency is read from the fitted curve at half-maximal effect.

Sequence of UniProt P04062 (P04062 whole entry, looked up): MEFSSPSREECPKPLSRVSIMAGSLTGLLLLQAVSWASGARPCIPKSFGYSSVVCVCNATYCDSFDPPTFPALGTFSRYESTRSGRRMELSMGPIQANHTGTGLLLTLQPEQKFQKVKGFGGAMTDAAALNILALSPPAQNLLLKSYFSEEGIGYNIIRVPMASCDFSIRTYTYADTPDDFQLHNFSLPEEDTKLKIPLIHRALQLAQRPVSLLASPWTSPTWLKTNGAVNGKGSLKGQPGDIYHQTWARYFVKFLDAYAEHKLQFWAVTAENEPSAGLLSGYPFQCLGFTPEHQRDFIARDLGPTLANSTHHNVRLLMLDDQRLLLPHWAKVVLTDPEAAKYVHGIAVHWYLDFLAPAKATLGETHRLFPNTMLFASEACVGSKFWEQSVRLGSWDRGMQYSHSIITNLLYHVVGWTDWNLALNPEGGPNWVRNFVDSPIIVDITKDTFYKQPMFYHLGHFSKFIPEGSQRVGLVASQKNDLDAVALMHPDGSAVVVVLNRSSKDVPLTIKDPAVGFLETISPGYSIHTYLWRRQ

In the test the target is Lysosomal acid glucosylceramidase (Homo sapiens) (UniProt P04062). The experiment in a line: Glucocerebrosidase.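 Also: the screen sought inhibitors.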 Conditions: purified enzyme, resorufin glucoside fluorescence (screen aimed at inhibitors), 20 min; series mostly up to 77 µM. The method in brief:
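Wild-type enzyme at 0.2 nM final in 50mM citric acid/KH2PO4, 10mM sodium taurocholate, 0.01% tween-20, pH 5.9, with resorufin beta-D-glucopyranoside at 30 uM final. Compounds titrated, 20 min at RT, red fluorescence read; AC50 from titration.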
As for `Cc1cc2c(c(=O)n1CCN(C)C)C(c1ccncc1)C(C#N)=C(N)O2` (stereo not drawn), the Potency was inactive: > 76.9 µM.

As for `COc1ccc(C2(NC(C)=O)CCN(C(=O)c3ccco3)CC2)cc1`, the Potency was inactive: > 76.9 µM.

As to `O=C(O)c1ccccc1-c1nc2ccccc2c(=O)[nH]1`, the Potency was inactive: > 76.9 µM.

For `COc1cc(S(=O)(=O)NCc2ccccc2)ccc1F`, the Potency is inactive: > 76.9 µM.

Turning to `Cn1c(-c2ccccc2)cccc1=O`, the Potency is inactive: > 76.9 µM.

Regarding `OCc1ccccc1CNCc1ccccc1`, the Potency was inactive: > 76.9 µM.

For the molecule `CCOC(=O)C1CCN(c2nc(-c3ccccc3)nc3c2oc2ccccc23)CC1`, the Potency was active: 7.39 µM.

`O=c1cc(CSc2ccc(Cl)cc2)nc(N2CCCCC2)[nH]1`: the Potency was inactive: > 76.9 µM.

Take `CSc1nsc(SCC(=O)Nc2c(C)n(C)n(-c3ccccc3)c2=O)n1`: the Potency was inactive: > 76.9 µM.

As for `CCSC1=C(C#N)C2(CCCCC2)C(C#N)=C(N)N1`, the Potency entry is “inactive”.

In the case of `O=C(CCN1C(=O)c2ccccc2C1=O)Nc1ccc(F)cc1F`, the Potency is inactive: > 76.9 µM.

As to `CC(=O)Nc1c(C#N)c(C(C)(C)C)cn1C`, the Potency was inactive: > 76.9 µM.

On to `O=C(CSc1nc(-c2ccco2)cc(C(F)(F)F)n1)Nc1ccc2c(c1)OCO2`, for which the Potency is inactive: > 76.9 µM.

For `Cc1ccc(S(=O)(=O)NCCC(=O)NCc2ccccc2)cc1`, the Potency was inactive: > 76.9 µM.

Regarding `CC(C)CSc1nc2c(c(=O)[nH]c(=O)n2C)n1CC(O)COc1cccc2ccccc12` (stereo not drawn), the Potency is inactive: > 76.9 µM.

Take `Cc1c(NC(=O)Cn2cnc3c(=O)n(C)c(=O)n(C)c32)cccc1-c1nc2ccccc2o1`: the Potency was inactive: > 76.9 µM.

As to `CCN(CC)S(=O)(=O)c1cccc2nsnc12`, the Potency is inactive: > 76.9 µM.

For `Cc1ccc(N2C(=O)C3C4C=CC(C4)C3C2=O)cc1C` (stereo not drawn), the Potency was inactive: > 76.9 µM.

Consider `COc1ccc(C(=O)N(Cc2ccco2)Cc2cc3cc(C)ccc3[nH]c2=O)cc1OC`, for which the Potency is inactive: > 76.9 µM.

Take `COc1ccc(CC2S/C(=C(\C#N)C(=O)NCc3ccco3)N(c3ccc(C)cc3)C2=O)cc1` (stereo not drawn): the Potency is inactive: > 76.9 µM.

`Cc1nnc(SCCn2c(N3CCC(C)CC3)nc3c2c(=O)[nH]c(=O)n3C)s1`: the Potency is inactive: > 76.9 µM.

As for `O=C(OCC(=O)N1CCN(C(=O)c2ccco2)CC1)c1ccccc1OCc1ccc(Cl)cc1`, the Potency is inactive: > 76.9 µM.

Regarding `CCc1ccccc1NC(=O)c1ccc(F)c(S(=O)(=O)N2CCC(C(N)=O)CC2)c1`, the Potency is inactive: > 76.9 µM.

Consider `CCN(C(=O)CSc1nnc(-c2ccccc2Cl)n1C1CCCC1)C1CCS(=O)(=O)C1` (stereo not drawn), for which the Potency was inactive: > 76.9 µM.

In the case of `CC1=C(C#N)C(Nc2cccc(C)n2)(C(F)(F)F)C(=O)N1` (stereo not drawn), the Potency is inactive: > 76.9 µM.

For `NC(=O)C1CCCN(C(=O)NC2CCCCC2)C1` (stereo not drawn), the Potency is inactive: > 76.9 µM.

On to `C/C(N)=C(/C#N)C(=O)CSc1nnc(NC(C)C)s1`, for which the Potency was inactive: > 76.9 µM.

As for `Cc1ccc(-c2nn3c(-c4ccco4)nnc3c3ccccc23)cc1S(=O)(=O)N1CCOCC1`, the Potency is inactive: > 76.9 µM.

On to `O=C(CSc1nc2sc3c(c2c(=O)n1Cc1ccco1)CCC3)N1CCc2ccccc21`, for which the Potency is inactive: > 76.9 µM.

As for `CCn1c(SCc2cccc(C(F)(F)F)c2)nnc1-c1ccco1`, the Potency was inactive: > 76.9 µM.

`Cc1cccc(NC2=NC(C)(C)N=C(N)N2)c1C`: the Potency is inactive: > 76.9 µM.

`Cc1cccc(OCCCn2ccnc2)c1`: the Potency is inactive: > 76.9 µM.

Consider `CCC(OC(=O)c1cccs1)C(=O)NCc1ccc2c(c1)OCO2` (stereo not drawn), for which the Potency was inactive: > 76.9 µM.

As to `CC(C)(C)c1nnc2sc(SC/C(O)=C(\C#N)c3nc4ccccc4[nH]3)nn2c1=O`, the Potency was inactive: > 76.9 µM.

With `CCS(=O)(=O)c1ccc(NC(=O)c2ccccc2Cl)c(O)c1`, the Potency is inactive: > 76.9 µM.

As for `O=C(Nc1cc(C(=O)N2CCOCC2)ccc1N1CCCC1)c1cccs1`, the Potency is inactive: > 76.9 µM.

Consider `COc1ccc(C2(O)CC3CCC(C2)N3c2nc(C)cc(C)c2C#N)cc1` (stereo not drawn), for which the Potency was inactive: > 76.9 µM.

In the case of `CCNc1ccc(C(=O)OCC)cc1NC(=O)c1cccc(S(=O)(=O)N2CCOCC2)c1`, the Potency is inactive: > 76.9 µM.

For the molecule `CN(C)S(=O)(=O)N1CCN(S(=O)(=O)N(C)C)CC1`, the Potency was inactive: > 76.9 µM.

In the case of `Cn1nnc2cc(C(=O)NCc3ccc4c(c3)OCO4)ccc21`, the Potency is inactive: > 76.9 µM.

For the molecule `Cc1ccccc1NC(=O)Cn1cccc1`, the Potency is inactive: > 76.9 µM.

On to `CN(C)S(=O)(=O)c1ccc(C(=O)NCc2cccs2)cc1`, for which the Potency was inactive: > 76.9 µM.

For `O=C(Cn1nc(-c2ccccc2F)ccc1=O)NCc1ccc2c(c1)OCO2`, the Potency was inactive: > 76.9 µM.

Turning to `CCn1c(Cc2cccs2)nnc1SCC(=O)Nc1ccc(OC)c(OC)c1`, the Potency is inactive: > 76.9 µM.

Consider `CCn1c(N)c(C(N)=O)sc1=S`, for which the Potency is inactive: > 76.9 µM.

Take `C(=C\c1ccccc1)/CSc1nnc(-c2ccncc2)n1Cc1ccco1`: the Potency was inactive: > 76.9 µM.

`CCOC(=O)N1CCN(C(=O)CCNS(=O)(=O)c2cc(Br)cnc2N)CC1`: the Potency was inactive: > 76.9 µM.

As to `O=C(CN1C(=O)CNC1=O)Nc1cccc(C(F)(F)F)c1`, the Potency is inactive: > 76.9 µM.

Turning to `COc1ccc(N=c2oc3cc(O)ccc3cc2C(=O)NCC2CCCO2)c(OC)c1` (stereo not drawn), the Potency is inactive: > 76.9 µM.

As for `CC(C)CC(=O)NCC(C)NC(=O)CC(C)C` (stereo not drawn), the Potency is inactive: > 76.9 µM.

As to `CCn1c(CC(C)C)n[nH]c1=S`, the Potency was inactive: > 76.9 µM.

Turning to `Cc1cc(C)nc(SCc2nnc(SCc3ccccc3Cl)o2)n1`, the Potency is inactive: > 76.9 µM.

Turning to `COC(=O)c1ccc(COC(=O)C23CC4CC(CC(O)(C4)C2)C3)o1`, the Potency is inactive: > 76.9 µM.

For the molecule `COc1ccc(S(=O)(=O)N(Cc2cccs2)C2CCCC2)cc1`, the Potency entry is “inactive”.

For `CC(=O)c1c(O)cc(C)n(Cc2ccccc2)c1=O`, the Potency is inactive: > 76.9 µM.

`COc1ccccc1NC(=O)CCN1CCN(CCC(=O)Nc2ccccc2OC)CC1`: the Potency is inactive: > 76.9 µM.

`COC(=O)c1sccc1NC(=O)C1CC=CCC1C(=O)O` (stereo not drawn): the Potency was inactive: > 76.9 µM.

Take `CCOC(=O)C1CCN(C(=O)c2ccc3c(c2)OCO3)CC1`: the Potency was inactive: > 76.9 µM.

For the origin of these results see PubChem BioAssay AID360 (National Center for Advancing Translational Sciences (NCATS), 2006).
